# In publication PMC10726135:
# This is one part of the list. At the low end of the ranking the order means little. The protein was read in a cell extract, so binding may be indirect.
# Molecular target: T1, HNF4alpha8 (COS-7 nuclear extract) (UniProt P41235-5)
# T1 sequence: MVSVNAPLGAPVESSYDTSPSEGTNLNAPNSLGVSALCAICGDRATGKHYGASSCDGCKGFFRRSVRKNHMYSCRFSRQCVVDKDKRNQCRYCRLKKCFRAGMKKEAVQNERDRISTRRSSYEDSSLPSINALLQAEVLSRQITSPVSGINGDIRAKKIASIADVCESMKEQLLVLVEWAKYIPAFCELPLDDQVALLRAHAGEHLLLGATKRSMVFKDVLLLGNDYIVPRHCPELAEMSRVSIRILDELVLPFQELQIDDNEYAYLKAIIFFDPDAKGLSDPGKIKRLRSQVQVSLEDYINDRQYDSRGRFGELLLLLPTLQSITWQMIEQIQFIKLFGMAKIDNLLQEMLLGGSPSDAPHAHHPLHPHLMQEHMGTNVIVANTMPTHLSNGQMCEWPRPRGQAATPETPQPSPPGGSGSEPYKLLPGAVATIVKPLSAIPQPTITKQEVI
# Assay: protein-binding microarray
# Conditions: COS-7 nuclear extract on double-stranded Agilent 4x180k PBM; binding buffer, salt, pH and temperature not given; high values mean tight binding; double strand, one strand shown; sequences stand for … in …GCCTAGGGAGATTAGAGTATCGGTCGA
row,Sequence,binding signal (log2 normalized intensity)
1,TGGGAATTGGGATGGCAGCTTCATTCCAGC,-1.41
2,ATCACTCCTGGTTGGCAAACAAAAAGCTCT,-1.29
3,GGCAGCAAGTATTCAAGAAAGGGGCAAAGT,3.02
4,CTGGAATGTCACAGGGATTACGATCCTGCC,-1.25
5,CCCCAATCAGGTTTCTCAAGTGATCGAAGG,1.98
6,TGAGCAAGATAATGACTAAGGCAGGGAAGG,-1.25
7,CGATGGGCTGGCCCTGAGCCAAGGGAGCAC,-1.24
8,CCTTCACAAATTAGACAAGGTTTGTAACAA,-0.0479
9,ATGTAAATAAGAGCTTTGCATAAGCCAGAC,-1.41
10,ACTTGGGTTTATGGCTTATGCATGTTTATG,2.08
11,AGATAGGTTAAAATTTATCTATTGGGTACA,2
12,CTGTCTTCATCCTGAGAGGGCTCAAGGTCT,2.15
13,CCCCAAATTCCTTTCAAACTGTATTGCTCA,1.24
14,TTGTCTTTTCGGAAGAACTGGTTCTGTGGA,1.39
15,GTCCATCACCTGGCTCTGAAAAACAAAATG,-0.567
16,GTCTTTGCCCCTGGACTTTGAATTTCCCCA,5.11
17,AACTAGGGTTCCAAGACCAAGCAAGCCAGT,-1.39
18,TTACCATATTTACTTATGGTTTGACCCTGC,5.23
19,AGATGTTATTACTTAATGCTTTGAATCCTT,1.16
20,GACCTCATTTGCTCCCAGTGCACACAGACT,0.0643
21,GGAAAGCTGCAGGCATGAGAGGTGCTGCAT,-1.17
22,CCTCCTCTGAAGGAACTTCTGGTTCTTTCT,-0.196
23,TCAATGGTTGCACTCTGGTGCCCTCTGAGT,2.85
24,GAGCCAGAGGGGCCAGGAACGTCACACTGA,-1.34
25,GGCTCTCCCGGGGCGGGGGTGACCAGATTA,1.07

row,Sequence,binding signal (log2 normalized intensity)
1,CCTAAAATTGACCTTTGATCACTCATGGGC,8.68
2,GAGGGCGAGAAGTAGGTGCAAGGGAATGTA,-1.17
3,TATCAGAAGAACTGCACTGTATCTTATCAG,-0.403
4,TACACAGTGCCTGCTTGCAGATAAAACATT,-1.24
5,TCTGACCTCTTTCAAGCCTGAACAAACATG,1.36
6,GGGCAGAGAGGCTGCCATCCCACATTCCAC,-1.18
7,TATGAGCTATGATTGCGCCACTGCATTCCA,-1.33
8,ATAAAGGGTGTGAGAGAGAAGGCAAGATTT,-1.31
9,GTTGGCAAACAAAAAGCTCTGCCTACGCAT,-1.38
10,CCTTCCGGAGGCTCTGCTGAAGAGAAGCCA,-1.35
11,CTTACAGGACAAAAGTAAATATGGTTTACC,-0.746
12,GGACAGCTGGCCTCATGCCTTATCTACATA,-1.29
13,AATCTTCCTTCTTACAGCTGGCTCACTATT,0.936
14,ATTACCAATGAGAAACCTCAAAGGTTAGGG,0.852
15,ATAAGCGAAGATAACCTACTTAAAAAGAAA,-1.15
16,TCCAGAAGAAAGGGGAGATAATGCCAGAAA,-1.13
17,TCAGACTGAGAGAGCAGGGCCCGAGGCCTT,-1.43
18,CAGGGATAGCGCCCACACTGCCCATCCCCA,2.37
19,CCGCCACCCCCCAGAGGGCCATCTAGCTTA,3.09
20,GTCAGTGAACTGTGGTTGACAGGCAACAAT,-0.232
21,CGAATGGTCGCGCCGGGCGCCGCTCTGAGT,-1.35
22,TCATGGCTTAAAACGACTGATTCTCAGGCA,-1.24
23,GAGGATGAGGACTTTGGTCTTATTACTAAG,3.37
24,GCTGGAGGTGTTAAAGTGCCATTGAGATGG,0.448
25,TGCAGTACTTTTCAGGAACTGTTCTTTGAC,1.51

row,Sequence,binding signal (log2 normalized intensity)
1,AGCTCAGTGGAAATTGTCCTGCGGTTGGCT,-0.992
2,TATCTCTCCCCCACCACTGCTTCCTGCCCC,5.48
3,GCCAGAAAAGCAAACCGAGATCAAGGGACA,-1.33
4,ACAAAACATTTGGTGTAAGCACTTGTGGTA,-0.287
5,ATCAAACCTGTTATTTGCGCCTCCCTAGAG,-1.32
6,CTCTGGGAGGGAGGAGCACAGAAGGAGAGA,-1.48
7,AAGCAGAGGGCGAGAAGTAGGTGCAAGGGA,-1.33
8,TCTTACAACATAGTGATTTAGGCTTTTGGG,-0.388
9,GCAGTAGTGCGATGATCATGGCTCACTGCA,-1.25
10,GACTCCAGTGATCTTATCGCCTAGTACTCC,0.579
11,AGAGATTTTCACATGGAATGTCGTGCCCTA,1.62
12,AGGTTTCAGAGGCTCACAGAGAGGCTTCTG,-0.963
13,CTCCCGCAGCATACACTTTCCGTACTTTTC,1.03
14,CTTGTTGGTAACCGGAGCAAAGGTTACTCT,4.95
15,GCCCTGCCACCCCCGTTAATTTCTAACCAA,2.57
16,ATCTCTGATGCCCTTTGGCCTTTCTAATTA,6.21
17,TCCCCTTTCTGTTGGAAGCTGATAAGCCAA,0.289
18,CATTGCATGTGCATTTCACAATAGGGTTCA,2.77
19,CTCTCCCTCCAGGCCCCAGCCACGCCCTCT,3.48
20,CCCAGGTCCAGCCTTTGGGCAGGGGCATCC,1.01
21,AAGGAGATTCCTGTGTCAGCAGAAGGCCCC,1.44
22,CAGTGGTAACCACAGTACTGTCTTTTTGCC,0.214
23,AAGCACATACTTCTTCCTGTTTGACCTTCG,5.61
24,GAGTTCTTCAAGTCAGTCAAAATGAATAGT,0.159
25,GTACTATGACCCAAACTTCACAAAAATGAG,1.74

row,Sequence,binding signal (log2 normalized intensity)
1,TTCCCAAGAAGAGCCCAGACAAGCATTCTG,-1.12
2,TGAGACCTGTGATGGTCACTATCTGGGCCA,0.312
3,GTCAAGTAGAGACCTGTCTTCCTGGTGACC,2.25
4,CCTATCTGGTGCAGTCCAAGAGGCCCAGGT,-1.37
5,TGTGTGTGTGTGTGTGTCTGTGTGTGTGTG,3.31
6,CAAACAAATGCCATAGTCCAAAGTGGCAGT,1.79
7,CCAGCAGATGAGCCTGTTGGGAGCCAGGCA,-1.33
8,ACCTTTGCCCTTGACTTTTTGTGGGGGCAG,3.39
9,CAGGCCGGCTTGCGTCCCCAGGTGAACTCA,1.98
10,TCACAATTAAGCCAAACTTGGGTTTATGGC,-0.0156
11,GACCCAGGAGGAGAAGGGTGGGAATTGGGA,-1.31
12,TCTGCAAGGCAACTGACCTTTGGATCTGGG,8.01
13,AAGATGGGCATTAGGTGGACAGGGGTGTGT,1.4
14,TTGGCAAGTTAATGTGGCCTAATGTTTGTG,1.93
15,TATCTTGTCTCTTCTTGTACCTCTGGTGAT,2.08
16,AAGGTAGGCAGAGAGGCTGCTCAGTTTAAG,-1.37
17,CAGGACTCTGGGACCGCAGGGGGCTCCCGG,-1.23
18,CTCTCATAAAAGAGGCCAATTTCTTGTCTG,-0.0911
19,CACTCCCAGTCCAGATATAGGGGAGGTCCT,-0.831
20,ATTATGCACCCGTGGTTGATCAAAGGTTGG,3.38
21,CACAGGAAAGGAGACTAAAGGTCAAAACCA,4.27
22,GGGTTACCGGCAGAGAGAAGCCACTGCGAC,-1.22
23,AGTGTAAGGACATTGCCCCCTATGTAAAGG,4.09
24,AATAAGCATTCTGTTTCCTACTGACCTCCG,3.2
25,TGCGAGGTTACAGGGTTCAACACGTGGTAT,2.55

row,Sequence,binding signal (log2 normalized intensity)
1,AAGGCCTTTCATACGTTTAACAGTTCCTCC,-1.22
2,AGAGGAATTGTTCAACATGGTGACTCTAGT,-0.284
3,AGACCTTTGGGTAGGAATAGAGCTCTAAAC,-1.1
4,CTTCCAAGGCTGCAAGCAAACCTGCCCTTT,4.57
5,GGCCAACACCAAGCAAGCTCTGCAATAGAG,-1.35
6,GAATCCAGGCCAACTGGAAGTCCAGCATTC,-1.27
7,CTATCTCAGATAGCTTTAGCCGGACTTTGT,5.85
8,ACTTTCATCTGAGTCTCAGCAATTAACAGG,0.231
9,ATTCCTAAGTTCCAAAGGCCATCCACATTC,2.4
10,CATTCCTGCACAGGACTGCTCTCTACTCAG,-1.27
11,AGTGTTTCAAAGGAGTGTCTTTCTCCTTGA,1.38
12,TAATAACAGACCATGCCATGCATTTCAGAA,-1.18
13,TATTTGATGATGAAGCAACATTAAACACTA,-1.34
14,GCCCCAGGTGAACCAGGGTGCAATTCGCAT,-0.837
15,CTTCGCAGCCCAGTGGTAATGGAGCTGAAA,-1.12
16,CAGCTTCATTCCAGCCCCATTCTGTGCTGG,-1.09
17,CACCCTTTTTTTTCTTTCTTTTCCCAAACC,1.32
18,TCACTATCTGGGCCAAGGCAGATATACCAG,-1.34
19,GTGTGACTGAGGGCTGACATGTCTTCTCTC,-0.81
20,GAGAAGAAATGATGGGTGCCACTTCTGAGC,-1.35
21,GTGCGTTCATCTCACAGAGTGGAGTCTTCC,-1.32
22,ACAAGAATGGTCATTCTCTGTTGCATGGTT,0.996
23,GGCTTTAGAGTTGTAGCTCTCAGCTCCTAC,-1.25
24,TGCAGCAAAGTCCAGGCATACTTCCTGCTC,-1.33
25,TGGGAGTTGTGGTCCGCAGGGCTGCCTCGC,-1.27

row,Sequence,binding signal (log2 normalized intensity)
1,GGTGGGCACCCCTGCCCCCATGTTGTTCAA,3.93
2,CCGCTGATCCCGGGAGGGAGAGAAGGACAT,-1.32
3,CCCTATTGGGCTAGCCGCTCCTCCCACGTC,-1.27
4,GACCTTTGGACTTGATAGAGTTTAAGTCTT,7.2
5,AGCTTTATCTCTCCCCCACCACTGCTTCCT,3.59
6,GCATCAGCCGGTGCAAAGGCCTTAAAGTGT,0.625
7,TCAGGTGTTGCTCTCTTGCCATTCGTGGAT,0.994
8,TGCAGCCCTGCCACTCTTTTTTAGACTTTG,4.39
9,TTCTCCAGGAAGTTCAGGCCTCGGCTTCAT,-1.22
10,TTGGACTCTATAGCCTATGCTTTGTATTTT,3.19
11,CTATTTGCTAATGTCCTTTGGAGTGCTTTC,2.01
12,GTTAGGTTGTGATACCCTCATTTTAGAGAT,-0.224
13,TCTTTAAGGACCACATCAAAGGTCATCTCT,5.09
14,GAGGGATTACCCTATGTCCCCCGACCCGCC,5.1
15,ATTTGCCCTGAAGACATGAAAAGTGGAATG,1.02
16,TTTAAGTGGGGTCAAAGGGTACAAATTCCA,5.4
17,TCGGTAGGCTTAGGCCAGGCGGAGCACACC,-1.35
18,GGGCAAGTTACTTAAGCCATCTGCTGCCTC,-1.41
19,GGTGAGGGTTACAGGTGGACAAACAGGCTG,-1.27
20,AGCAGTGCCCAAAGCCCAAGGGATGTCCAT,-1.28
